The list shows a part of the results. These are further read-outs of the screen, such as a control signal, another cell line or another target. No call is given for them.
Assays:
Assay in all cases: Primary Screen for Target Class Profiling of Small Molecule Inhibitors of Methyltransferases
[1] = biological target: Glycine N-methyltransferase (Homo sapiens) (UniProt Q14749); details: purified enzyme, MTase-Glo SAH luminescence; measured here: GNMT inhibition; at 40 µM; stronger effect = lower value
Procedure, shortened: (§1)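 Each enzyme was reacted with SAM and its substrate, with compounds tested once at 40 uM; SAH formed was read by MTase-Glo luminescence.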

[2] = biological target: Guanidinoacetate N-methyltransferase (Homo sapiens) (UniProt Q14353); details: purified enzyme, MTase-Glo SAH luminescence; measured here: GAMT inhibition; at 40 µM; stronger effect = lower value
Procedure, shortened: as §1

[3] = biological target: Histamine N-methyltransferase (Homo sapiens) (UniProt P50135); details: purified enzyme, MTase-Glo SAH luminescence; measured here: HNMT inhibition; at 40 µM; stronger effect = lower value
Procedure, shortened: as §1

[4] = biological target: Nicotinamide N-methyltransferase (Homo sapiens) (UniProt P40261); details: purified enzyme, MTase-Glo SAH luminescence; measured here: NNMT inhibition; at 40 µM; stronger effect = lower value
Procedure, shortened: as §1

[5] = biological target: Phenylethanolamine N-methyltransferase (Homo sapiens) (UniProt P11086); details: purified enzyme, MTase-Glo SAH luminescence; measured here: PNMT inhibition; at 40 µM; stronger effect = lower value
Procedure, shortened: as §1
On the % scale 0 is the no-effect control and ±100 the full control effect.

SMILES | activity change, negative = inhibition [1] [%] | activity change, negative = inhibition [2] [%] | activity change, negative = inhibition [3] [%] | activity change, negative = inhibition [4] [%] | activity change, negative = inhibition [5] [%]
COCC1CCN(C(=O)[C@@H]2CN(c3cnccn3)C[C@H]2COC)CC1 | -2.5 | -4.12 | 0.056 | -7.95 | -5
O=C1c2cc3sccc3n2CC(C(=O)NC2CCCCCC2)(c2ccccc2)N1Cc1ccc2c(c1)OCO2 (stereo not given) | 3.45 | 0 | 1.83 | 0.849 | -2.43
c1ccc(CN2CCC[C@H]2c2nc(-c3ccc(N4CCOCC4)nc3)no2)cc1 | -4.08 | 1.45 | 0.834 | 1 | -0.731
CCS(=O)(=O)N1CCC(Oc2cccc(C(=O)NCc3ccccn3)c2)CC1 | -1.52 | -4.21 | -2.84 | -12.2 | -4.99
CC1(C(=O)NCc2ccccc2)Cn2c(cc3ccccc32)C(=O)N1Cc1ccccc1F (stereo not given) | 0.547 | 1.34 | 0.593 | -5.39 | -0.588
COc1ccccc1CN1CCC(N2CC3CCCN3C2=O)CC1 (stereo not given) | -4.26 | -6.13 | -7.32 | -12.7 | 2.76
Cc1noc(C)c1[S+](=O)([O-])N(C)Cc1ccc(-c2ccccc2)cc1 | -4.79 | -4.28 | -0.096 | -7.09 | -21.4
O=C1c2cc3occc3n2CC(C(=O)NC2CCCCCCC2)(c2ccccc2)N1Cc1cccc(F)c1 (stereo not given) | 0.266 | 3.85 | -1.25 | -1.82 | -5.69
COc1ccc(-c2n[nH]n3c2nc(=O)c2ccc(C(=O)NCc4cccnc4)cc23)cc1 | -3.86 | 2.51 | -1.13 | 0.668 | -0.251
